According to PubChem BioAssay AID662 (National Center for Advancing Translational Sciences (NCATS), 2007):
Out of some 71,000 compounds screened, about 1,800 (2.5%) were called active. Inconclusive results, whose numbers are uncertain, are shown with a selection of clear calls. Calls follow the shape of the dose curve; as a rule, active = well fitted activation curve with a large enough effect in the signal ratio, with a control signal flat (not every such curve was filed as active); inconclusive = small, poorly fitted or top-dose-only effect, or effect the other way, or a change in a side signal; inactive = flat fitted curve, though single readings scatter; the % refers to the signal ratio. Where the call is inconclusive, the potency comes from a doubtful curve fit.

Experiment: Cell signaling CRE-BLA (Fsk stim); as to activity change, negative = inhibition: % of control where 0% means no effect
Conditions: CHO CRE-bla reporter (cAMP response element driving beta-lactamase), forskolin EC10, beta-lactamase ratio; activity change, negative = inhibition: at 38.2 µM (top of the series) unless noted
Procedure, shortened: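 Reporter-gene assay: CHO cells with beta-lactamase behind cAMP responsive elements, co-treated with compound and EC10 NKH 477 for 3 hours at 37 degrees Celsius. Activity came from the 460/530 nm CCF4 emission ratio.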
Potency is read from the fitted curve at half-maximal effect; tags tell the direction and shape of the fitted curve.

For `Cc1cccc2nc(Cn3c(=O)n(CCCC(=O)NCc4ccco4)c(=O)c4ccccc43)cc(=O)n12`, which Potency is on record?
Its Potency is inconclusive: 10 µM [rising, single point].

For `COc1ccccc1C(=O)Nc1cccc(-c2cn3ccsc3n2)c1`, which Potency is on record?
Its Potency is active: 3.16 µM.

With `COc1nc(Nc2ccc(OC)c(Cl)c2)nc(OC)n1` as the molecule, how does the Potency read?
Its Potency is active: 10 µM.

With `O=C(CSc1nnc2scc(-c3ccccc3)n12)N1CCCc2ccccc21` as the molecule, how does the activity change, negative = inhibition read?
The activity change, negative = inhibition was inconclusive: 17.6%.

Which activity change, negative = inhibition does the source give for `O=C(c1cnccn1)N1CCC[C@@]2(CCN(Cc3nccs3)C2)C1` here?
The activity change, negative = inhibition was inconclusive: 6.08%.

For `O=P(O)(O)c1ccccc1OCCOCCOc1ccccc1P(=O)(O)O`, which activity change, negative = inhibition is on record?
Its activity change, negative = inhibition is inconclusive: -7.5%.

Which Potency does the source give for `CC(C)C[C@@H](CC(=O)N[C@H](CC(=O)N[C@@H]1CCNC[C@H]1C(=O)N[C@H](CC(=O)N[C@@H](CCC(=O)O)CC(=O)O)Cc1ccccc1)C(C)C)NC(=O)[C@@H]1CCCC[C@H]1N` here?
The Potency was “inactive”.

Which Potency does the source give for `NC(=O)C1CCN(C(=O)CSc2nc3c(c(-c4ccccc4)n2)CCCC3)CC1` here?
The Potency was “inactive”.

For `COc1ccc(NC(=O)N2CC[C@@]3(CCCN(C(=O)c4ccco4)C3)C2)cc1`, which activity change, negative = inhibition is on record?
Its activity change, negative = inhibition is inconclusive: -0.364%.

With `CC(C)(C)C1CCc2onc(C(=O)Nc3cnn(Cc4ccc(F)cc4)c3)c2C1` (centres undefined) as the molecule, how does the Potency read?
The Potency was “inactive”.

With `Cc1noc(C)c1C(=O)N1CCC2(CCN(C(=O)NC(C)C)CC2)CC1` as the molecule, how does the Potency read?
The Potency was “inactive”.

For `CCn1c(CNC(C)=O)nnc1SCC(=O)c1ccc(Br)cc1`, which activity change, negative = inhibition is on record?
Its activity change, negative = inhibition is inconclusive: -19.7%.

With `O=C(Nc1ccc2c(c1)OCO2)N1CCOCC1` as the molecule, how does the Potency read?
The Potency was “inactive”.

For `Cc1oc(C)c2c(=O)ccc3c(c12)OC(N)=C(C#N)C3c1ccccc1` (centres undefined), which Potency is on record?
Its Potency is active: 0.251 µM.

For `Cc1cc(C)cc(NC2=NC3(CCCCC3)N=C(N)N2)c1`, which Potency is on record?
The Potency was inconclusive: 15.8 µM [rising, single point].

With `COCCn1c(=O)c(-c2cccs2)nc2cnc(Oc3cccc(Cl)c3)nc21` as the molecule, how does the Potency read?
Its Potency is inconclusive: 5.01 µM [rising, partial curve].

Which Potency does the source give for `O=C(c1ccco1)N1CCN(c2cc(C(F)(F)F)nc3ncnn23)CC1` here?
The Potency was “inactive”.

For `COc1ccc(/C=C/C(O)=C2/C(=O)N(C)C3(C)CC2c2ccccc2O3)cc1` (centres undefined), which Potency is on record?
The Potency was inconclusive: 0.126 µM [rising, full curve].

Which Potency does the source give for `CC1CN(c2oc(COc3ccc(Cl)cc3Cl)nc2C#N)CC(C)O1` (centres undefined) here?
Its Potency is inconclusive: 25.1 µM [rising, single point].

With `O=C(C1CCC1)N1CCc2cc(S(=O)(=O)N3CCc4ccccc4C3)ccc21` as the molecule, how does the activity change, negative = inhibition read?
Its activity change, negative = inhibition is inconclusive: -19.9%.

With `O=c1c(-c2ccc(F)cc2)nc2cnc(N3CCOCC3)nc2n1C[C@H]1CCCO1` as the molecule, how does the Potency read?
Its Potency is active: 1 µM.

For `COc1cccc(Cn2c(=O)c(C)nc3cnc(OCc4ccccc4)nc32)c1`, which Potency is on record?
Its Potency is active: 12.6 µM.

For `CN[C@@H](c1ccncc1)[C@@H](NC)c1ccncc1`, which activity change, negative = inhibition is on record?
The activity change, negative = inhibition was inconclusive: -5.21% [at 7.6 µM].

Which Potency does the source give for `CCOC(=O)c1cc(NC(=O)N2CCCCC2)c(C)nc1C` here?
Its Potency is “inactive”.

Which activity change, negative = inhibition does the source give for `COCCCNC(=O)c1ccc2c(=O)n(C3CCCC3)c(=S)[nH]c2c1` here?
Its activity change, negative = inhibition is inconclusive: -13.4%.

Which Potency does the source give for `CCc1ccc(NC(=O)N(C2CCC(C)CC2)C2CCN(C(C)=O)CC2)cc1` (centres undefined) here?
Its Potency is “inactive”.

Which Potency does the source give for `Cc1ccc(/C=c2\sc3nc(-c4ccco4)nn3c2=O)o1` here?
The Potency was “inactive”.

For `Cn1c(SCCOc2ccccc2Cl)nnc1-c1ccncc1`, which activity change, negative = inhibition is on record?
Its activity change, negative = inhibition is inconclusive: 6.43%.

Which Potency does the source give for `N#Cc1cccc(-c2nc3cnc(Nc4ccccc4)nc3n(C[C@H]3CCCO3)c2=O)c1` here?
The Potency was inconclusive: 3.16 µM [rising, partial curve].

With `CC1CCC2(CC1)NC(=O)N(Cc1nc(-c3ccccc3)no1)C2=O` (centres undefined) as the molecule, how does the Potency read?
The Potency was inconclusive: 10 µM [rising, partial curve].

With `CCCc1ccc(Oc2c(-c3ccc(O)c(C)c3O)n[nH]c2C)cc1` as the molecule, how does the Potency read?
Its Potency is inconclusive: 12.6 µM [rising, single point].

With `O=C(Nc1ccc2c(c1)OCO2)c1cccc(S(=O)(=O)N2CCCC2)c1` as the molecule, how does the Potency read?
Its Potency is “inactive”.

For `C[C@@H]1[C@H](C)CC[C@@]2(C(=O)O[C@H]3O[C@@H](CO[C@H]4O[C@@H](CO)[C@@H](O[C@H]5O[C@@H](C)[C@@H](O)[C@@H](O)[C@@H]5O)[C@@H](O)[C@@H]4O)[C@@H](O)[C@@H](O)[C@@H]3O)CC[C@]3(C)C(=CC[C@H]4[C@@]5(C)C[C@@H](O)[C@@H](O)[C@](C)(CO)[C@@H]5CC[C@@]43C)[C@@H]12`, which Potency is on record?
The Potency was “inactive”.

For `OCc1ccnc2c(O)cccc12`, which Potency is on record?
The Potency was “inactive”.

For `CCCn1c(=O)c2c(nc(Br)n2CCC)n(C)c1=O`, which Potency is on record?
Its Potency is inconclusive: 20 µM [rising, single point].

For `O=C(CC1Nc2ccccc2NC1=O)Nc1ccccc1` (centres undefined), which Potency is on record?
The Potency was inconclusive: 12.6 µM [rising, single point].

For `CC(C)N(Cc1ccccc1)C(=O)COC(=O)c1ccc2c(c1)OCCO2`, which activity change, negative = inhibition is on record?
Its activity change, negative = inhibition is inconclusive: 0.215%.

With `COc1ccc(CC(=O)Nc2cccc(-c3nnc(-c4ccc(C)cc4)o3)c2)cc1OC` as the molecule, how does the activity change, negative = inhibition read?
Its activity change, negative = inhibition is inconclusive: 18.9%.

With `C[C@@H]([C@H](O)c1ccc(O)cc1)N1CCC(Cc2ccccc2)CC1` as the molecule, how does the activity change, negative = inhibition read?
The activity change, negative = inhibition was inconclusive: -26.3%.

With `CCCCN(C)CCCNC(=O)c1ccc(N2CCCC2=O)cc1` as the molecule, how does the Potency read?
The Potency was “inactive”.

With `CCN(Cc1ccccc1)C(c1ccccn1)c1nnnn1C(C)(C)CC` (centres undefined) as the molecule, how does the Potency read?
Its Potency is inconclusive: 0.1 µM [falling, single point].

For `CCN(C(=O)c1ccnc(C(C)(C)C)c1)c1ccccc1`, which Potency is on record?
Its Potency is “inactive”.

For `Cc1ccc(Oc2cc(C)nc(-c3ccccc3O)n2)cc1`, which Potency is on record?
Its Potency is inconclusive: 15.8 µM [rising, single point].

For `COc1cc2c(cc1OC)-c1nnc(C)n1C1(CCCC1)C2`, which Potency is on record?
Its Potency is inconclusive: 7.94 µM [rising, partial curve].

Which Potency does the source give for `Cc1cccc(-c2c3c(=O)n(C)c(=O)n(C)c3cn2C(C)C)c1` here?
Its Potency is active: 3.98 µM.

Which Potency does the source give for `Cn1c(C(=O)N2CCN(c3ccc(Cl)cc3)CC2)cc2c(=O)n(C)c3ccccc3c21` here?
The Potency was “inactive”.

Which Potency does the source give for `COC(=O)[C@@]1(Cc2ccccc2)[C@H]2c3cc(C(=O)N4CCCC4)n(CC4CC4)c3C[C@H]2CN1C(=O)c1ccccc1` here?
The Potency was “inactive”.

Which activity change, negative = inhibition does the source give for `O=C(O)CCC(=O)N1CCN(c2ccccn2)CC1` here?
The activity change, negative = inhibition was inconclusive: 5.49%.

Which Potency does the source give for `CCN1c2ccccc2NC2N=C(OC)C(c3ccccc3)C21` (centres undefined) here?
Its Potency is inconclusive: 12.6 µM [rising, partial curve].
